According to PubChem BioAssay AID1159614 (National Center for Advancing Translational Sciences (NCATS), 2016):
About 65 (0.1%) of roughly 45,000 compounds were called active. Calls follow the shape of the dose curve; as a rule, active = well fitted activation curve with a large enough effect; inconclusive = small, poorly fitted or top-dose-only effect; inactive = no such curve, though single readings can be large or run the other way. The list shows a part of the results.

What follows are compounds tested against Galactocerebrosidase (Homo sapiens) (UniProt P54803) (assay: A Novel Cell-Based Assay to Identify Small Molecules for B -Galactocerebrosidase). Settings: 145M-Twi-hGALC-G270D cells (Twitcher mouse brain line with human GALC G270D), HMU-beta-Gal fluorescence, 48 h; series mostly up to 57.5 µM; activation: at the top concentration.
Procedure, shortened: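 Mutant human GALC (G270D), stably expressed in a Twitcher mouse brain cell line lacking endogenous GALC, is measured in live-treated cells via 6-hexadecanoylamino-4-methylumbelliferyl-β-galactoside hydrolysis (0.1 mM final, pH 5.2) with fluorescent detection.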
Also: 0% is about no effect; nearly all actives have a fitted effect of over 65% in size.

UniProt P54803, sequence (P54803 whole entry, looked up): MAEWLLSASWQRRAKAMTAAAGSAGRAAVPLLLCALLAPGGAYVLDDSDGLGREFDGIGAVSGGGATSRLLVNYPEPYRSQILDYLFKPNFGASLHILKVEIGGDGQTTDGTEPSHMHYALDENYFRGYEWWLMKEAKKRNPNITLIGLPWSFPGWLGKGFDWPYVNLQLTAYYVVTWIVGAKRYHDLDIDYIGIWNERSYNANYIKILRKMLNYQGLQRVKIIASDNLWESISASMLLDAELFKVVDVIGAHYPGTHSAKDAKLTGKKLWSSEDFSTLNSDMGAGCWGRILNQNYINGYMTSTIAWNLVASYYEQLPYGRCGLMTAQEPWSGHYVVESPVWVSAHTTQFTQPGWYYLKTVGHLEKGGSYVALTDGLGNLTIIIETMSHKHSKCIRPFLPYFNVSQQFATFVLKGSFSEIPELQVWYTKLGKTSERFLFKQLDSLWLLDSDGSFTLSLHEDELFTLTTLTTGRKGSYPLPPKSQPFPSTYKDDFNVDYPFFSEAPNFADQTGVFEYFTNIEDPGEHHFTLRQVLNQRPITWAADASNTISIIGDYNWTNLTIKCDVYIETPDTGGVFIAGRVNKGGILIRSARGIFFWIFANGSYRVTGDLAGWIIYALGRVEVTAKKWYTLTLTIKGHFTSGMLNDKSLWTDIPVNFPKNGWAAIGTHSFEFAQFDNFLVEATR

Row | SMILES | activation
1 | Cc1cc(C)cc(C(=O)Nc2c(C(=O)Nc3ccccc3F)oc3ccccc23)c1 | inactive: -10.4%
2 | COc1cccc2sc(N3CCN(C(=O)CS(=O)(=O)c4ccc(Cl)cc4)CC3)nc12 | inactive: -18.7%
3 | CC(C)N(C(=O)c1cc2c(Cl)nc3ccccc3c2s1)C1CCCCC1 | inactive: -5.42%
4 | COc1cccc(CNc2ncc(-c3ccc(Br)cc3)n2C)c1 | inactive: -2.08%
5 | Cc1onc(-c2ccc(Br)cc2)c1C(=O)Nc1ccc(Br)cc1F | inactive: 2.65%
6 | CCOC(=O)c1scc(-c2ccc(C)cc2)c1S(=O)(=O)Nc1cccc(CC)c1 | inactive: -34.4%
7 | COc1ccc(-n2c(SCC(=O)Nc3nnc(C)s3)nc3c([nH]c4ccccc43)c2=O)cc1 | inactive: -20%
8 | O=C(O)CC(NS(=O)(=O)c1ccc(Br)s1)c1ccccc1 (centres undefined) | inactive: -15.1%
9 | CCOc1ccc(NC(=O)Cn2cc(C(=O)c3ccc(C)cc3)c(=O)c3cc4c(cc32)OCCO4)cc1 | inactive: -8.49%
10 | Nc1c(-c2nc(-c3ccccc3)cs2)c2ccccn2c1C(=O)c1ccc2c(c1)OCO2 | inactive: -8.71%
11 | O=C(NCCCN1CCN(c2ccccc2)CC1)c1nnc(Cc2ccc(F)cc2)o1 | inactive: -15.2%
12 | CCN1C(C(=O)c2ccccc2)=C(OC(=O)COc2ccccc2)c2ccccc2S1(=O)=O | inactive: -1.1%
13 | CC1=C(C(=O)Nc2cc(C)ccc2C)C2(CCCCCC2)OC1=O | inactive: -9.96%
14 | Cc1cc(C)c(S(=O)(=O)N2CCN(Cc3nc4ccc(C)cc4o3)CC2)c(C)c1 | inactive: -21.3%
15 | Cc1cccc(C(=O)Nc2cc3c(cc2N2CCOCC2)n(C)c(=O)n3C)c1 | inactive: -11.7%
16 | CCOC(=O)c1ccccc1Nc1cc(C)nc2nc(-c3ccco3)nn12 | inactive: -11.8%
17 | COc1cc2c(cc1OC)C(COc1ccc(F)cc1)N(C(=O)c1ccccc1F)CC2 (centres undefined) | inactive: -25.1%
18 | Cc1cccc(-c2nnc(SCC(=O)N3CCCc4ccccc43)o2)c1 | inactive: -9.44%
19 | CSc1cccc(NC(=O)Cn2nc(C)c3sc4ccccc4c3c2=O)c1 | inactive: -9.3%
20 | CC(=O)c1ccc(C(=O)N(Cc2cccnc2)c2nc3c(Cl)cccc3s2)cc1 | inactive: 10.4%
21 | CCOCCCNC(=O)Nc1cc(C(=O)NCc2ccc(C(C)C)cc2)ccc1N1CCCC1 | inactive: -22.9%
22 | CC(C)OCCCN(C)C1CCN(S(=O)(=O)c2csc(C(N)=O)c2)CC1 | inactive: -17.9%
23 | COc1ccc(-n2c(C)nc3cc(C(=O)NC4CCCC4)ccc32)cc1 | inactive: -6.14%
24 | Cc1cccc(CS(=O)(=O)c2ncc(Cl)c(C(=O)Nc3nc4ccc(F)cc4s3)n2)c1 | inactive: -6.03%
25 | Cn1nnnc1SCCNCc1ccccc1OCc1ccc(Cl)cc1Cl | inactive: -16.8%

Row | SMILES | activation
26 | COC(=O)C(C)NC(=O)N1CCN(c2nnc(C)c3c(C)n(-c4ccc(Cl)cc4)nc23)CC1 (centres undefined) | inactive: -20.8%
27 | Cc1cc(C)cc(NC(=O)C2CCN(c3cc(C)nc4c(-c5ccc(Cl)cc5)c(C)nn34)CC2)c1 | inactive: -10.1%
28 | Cc1ccc(S(=O)(=O)c2nnn3c2nc(NCc2cccs2)c2sccc23)cc1C | inactive: -2.4%
29 | CCCCCCCCCCCCCCCC(=O)NCCO | inactive: -11.3%
30 | CCOc1ccc(N(CC)S(=O)(=O)N2CCCC(C(=O)NCc3ccc(Cl)cc3)C2)cc1 (centres undefined) | inactive: -17.5%
31 | CC(C)NC(=O)N1CCC(N2CCN(Cc3ccc(F)cc3)C(=O)C2=O)CC1 | inactive: -11.2%
32 | O=C(Cc1ccc(F)cc1)NCCc1csc(-c2cccc(F)c2)n1 | inactive: -9.18%
33 | Cc1ccc(C)c(NS(=O)(=O)c2ccc3c(c2)n(C)c(=O)n3C)c1 | inactive: -11%
34 | COc1ccc(-c2noc(Cn3c(=O)c4ccccc4n(CC(=O)Nc4cccc(C(F)(F)F)c4)c3=O)n2)cc1 | inactive: -1.79%
35 | CN1CCN(C2=Nc3cc(Cl)ccc3Nc3ccccc32)CC1 | inactive: -8.95%
36 | Cc1oc(-c2cccc(Br)c2)nc1Cn1c(=O)cc(-c2ccccc2)c2c(C)nn(C)c21 | inactive: -5.25%
37 | COc1ccc2c(c1)c1c(c(=O)n(Cc3ccccc3)c(=O)n1CC(=O)Nc1c(C)cccc1C)n2C | inactive: -7.75%
38 | Cc1ccc(S(=O)(=O)NCCc2sc3nc(-c4ccccc4)nn3c2C)cc1C | inactive: 0.0997%
39 | Cc1ccccc1-c1nc(CS(=O)(=O)CC(=O)Nc2cccc(C(F)(F)F)c2)c(C)o1 | inactive: 13.8%
40 | O=C(c1cccc(Cl)c1)N(Cc1ccco1)Cc1ccccc1Cl | inactive: -6.98%
41 | CCc1nc2onc(C)c2c(=O)n1CC(=O)O | inactive: -5.09%
42 | CCn1c(SCC(=O)N2CCC(C)CC2)nnc1-c1ccccc1O | inactive: -8.77%
43 | CCCn1ccc2c(OCC(=O)Nc3ccccc3OCC)cccc2c1=O | inactive: 9.26%
44 | Cn1c(SCc2cccc(F)c2)nc2c([nH]c3ccccc32)c1=O | inactive: -6.44%
45 | O=C(NCC(c1cccnc1)N1CCOCC1)C(=O)Nc1ccc(F)cc1 (centres undefined) | inactive: -11.8%
46 | COc1ccc(OC)c(CCNc2nccn(-c3ccc(C)c(C)c3)c2=O)c1 | inactive: -4.87%
47 | Cc1ccc(CNC(=O)CCC(=O)N2Cc3ccccc3Oc3ncccc32)cc1 | inactive: -6.59%
48 | COc1ccc(Cn2c(=O)[nH]c3cc(C(=O)N4CCN(c5ccccc5)CC4)ccc3c2=O)cc1 | inactive: 3.08%
49 | COc1ccccc1NC(=O)C1=C(C)Nc2nc3ccccc3n2C1c1cccc(Br)c1 (centres undefined) | inactive: -9.74%
